Measurements taken from publication PMC8996997 (2022).

Biological target: His×6-YY1(wt) (human, UniProt P25490)
Experiment: SPR

| Kd | Binder |
| --- | --- |
| 147 nM | His×6-YY1([…]) (domain or fragment) not shown |
| 193 nM | His×6-YY1([…]) (domain or fragment) MASGDTLYIATDGSEMPAEIVELHEIEVETIPVETIETTVVGEEEEEDDDDEDGGGGDHGGGGGHGHAGHHHHHHHHHHHPPMIALQPLVTDDPTQVHHHQEVILVQTREEVVGGDDSDGLRAEDGFEDQILIPVPAPAGGDDDYIEQTLVTVAAAGKSGGGGSSSSGGGRVKKGGGKKSGKKSYLSGGAGAAGGGGADP[about 20 residues left out here] |
| 563 nM | His×6-YY1([…]) (domain or fragment) QEVILVQTREEVVGGDDSDGLRAEDGFEDQILIPVPAPAGGDDDYIEQTLVTVAAAGKSGGGGSSSSGGGRVKKGGGKKSGKKSYLSGGAGAAGGGGADP[about 20 residues left out here] |
